Test results published in PMC4336329 (PLoS ONE, 2015).
In all, about 310,000 compounds went through this assay and about 14,000 (4.5%) showed an effect of 50% or more. The effect is printed as a negative number. The list shows a part of the results.

What follows are compounds tested against human ether-à-go-go-related gene (hERG) potassium channel (human, UniProt Q12809) (assay: primary screen, population patch clamp on CHO cells stably expressing hERG).
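Note: peak tail current of the secondary pulse compared with the same well before compound.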

human ether-à-go-go-related gene (hERG) potassium channel, sequence (Q12809 whole entry, looked up): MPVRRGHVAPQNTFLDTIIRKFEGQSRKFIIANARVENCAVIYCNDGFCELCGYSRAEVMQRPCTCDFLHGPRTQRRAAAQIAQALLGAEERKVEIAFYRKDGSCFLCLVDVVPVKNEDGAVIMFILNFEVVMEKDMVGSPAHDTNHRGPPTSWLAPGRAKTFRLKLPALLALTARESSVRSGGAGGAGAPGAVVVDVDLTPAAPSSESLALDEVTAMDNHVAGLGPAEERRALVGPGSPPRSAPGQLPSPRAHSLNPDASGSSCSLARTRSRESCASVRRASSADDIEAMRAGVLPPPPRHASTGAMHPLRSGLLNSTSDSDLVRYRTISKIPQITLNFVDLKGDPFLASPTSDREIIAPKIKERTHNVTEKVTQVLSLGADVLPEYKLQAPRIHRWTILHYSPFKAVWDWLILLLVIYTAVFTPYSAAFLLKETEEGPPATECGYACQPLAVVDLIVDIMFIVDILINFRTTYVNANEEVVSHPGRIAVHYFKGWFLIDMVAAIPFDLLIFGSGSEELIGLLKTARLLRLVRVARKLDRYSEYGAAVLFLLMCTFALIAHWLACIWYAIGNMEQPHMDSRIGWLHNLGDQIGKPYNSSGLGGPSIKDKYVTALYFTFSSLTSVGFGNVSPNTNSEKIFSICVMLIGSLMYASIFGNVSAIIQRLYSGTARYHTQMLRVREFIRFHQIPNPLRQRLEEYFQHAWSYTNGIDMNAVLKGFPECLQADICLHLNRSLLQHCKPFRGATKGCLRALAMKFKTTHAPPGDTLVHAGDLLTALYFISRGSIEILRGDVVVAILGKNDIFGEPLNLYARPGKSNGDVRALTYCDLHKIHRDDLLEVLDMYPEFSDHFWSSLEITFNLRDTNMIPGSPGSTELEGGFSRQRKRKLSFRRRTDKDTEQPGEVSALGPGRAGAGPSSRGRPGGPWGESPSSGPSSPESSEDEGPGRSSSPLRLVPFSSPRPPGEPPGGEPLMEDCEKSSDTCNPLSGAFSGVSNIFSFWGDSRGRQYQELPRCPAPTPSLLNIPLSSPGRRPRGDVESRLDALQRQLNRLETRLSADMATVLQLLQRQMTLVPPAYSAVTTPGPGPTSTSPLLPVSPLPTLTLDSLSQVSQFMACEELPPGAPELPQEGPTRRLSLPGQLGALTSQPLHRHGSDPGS

| SMILES | hERG current change (%, negative = inhibition) at 10uM [%] |
| --- | --- |
| OCC[C@H]1C[C@H](O)[C@@H](O)[C@]2(CCCO2)O1 | 17.4 |
| COc1cccc(NC(=O)C2CSC3(C)CCC(=O)N23)c1 (centres unmarked) | 9.18 |
| COc1cc(NC(=O)CCCNC(=O)Cn2cnc3sc4c(c3c2=O)CCCC4)cc(OC)c1OC | 29.6 |
| CCCCN(C(=O)CCC(=O)OCC(=O)NCc1ccccc1)c1c(N)n(CCC)c(=O)[nH]c1=O | 4.08 |
| O=C(O)CCCn1cc(NC(=O)COc2ccccc2[N+](=O)[O-])cn1 | 18 |
| O=C(OCc1nnc(-c2ccccc2)o1)C1CC(=O)N(CCc2ccccc2)C1 (centres unmarked) | -31 |
| Oc1ccccc1N1CCN(C(c2ccccc2)c2ccccc2)CC1 | 12.6 |
| O=C(N[C@@H](Cc1ccccc1)C(=O)OCc1ccccc1)c1nc[nH]c1C(=O)N1CCc2ccccc2C1 | 3.1 |
| COc1cccc(-c2nc(CS(=O)(=O)CC(=O)NC3CCCCC3C)c(C)o2)c1 (centres unmarked) | -8.76 |
| COc1cccc(/C=N/NC(=O)COc2cccc3cccnc23)c1O | 0.232 |
| Cc1ccc(C(=O)C(C(=O)/C=C/c2ccccc2)=C2SCCCS2)cc1 | 3.51 |
| O=S(=O)(c1ccccc1)c1nc(-c2ccc(F)cc2)oc1N1CCOCC1 | 2.21 |
| Cc1cccnc1Oc1ncccc1N | 13.8 |
| Brc1cccc2sc(N3CCN(c4ccccc4)CC3)nc12 | 19.7 |
| O=C(Nc1ccc(-c2n[nH]c(=S)o2)cc1)c1ccccc1 | 15.6 |
| O=S(=O)(Nc1ccc2c(c1)OCCO2)c1ccc(Br)s1 | -5.95 |
| CCOC(=O)c1cc(-c2ccc(F)cc2)n(CC(=O)NCc2cccnc2)c1C | -8.45 |
| Cc1ccccc1OCC(O)CN1CCN(CC(O)COc2ccccc2C)C(C)C1.O=C(O)C(=O)O (centres unmarked) | -70.8 |
| CCOC(=O)CNC(=O)CN1CCCN(S(=O)(=O)c2ccc(Br)s2)CC1 | -47.2 |
| COc1cccc(OC)c1OCCCN1CCOCC1 | 4.22 |
| CC(=O)Nc1ccc2nc(C3CC3)n(Cc3ccc(Cl)cc3)c(=O)c2c1 | 4.19 |
| Cc1c(-n2c(SCC(=O)N(C)C3CCS(=O)(=O)C3)nc3ccccc3c2=O)c(=O)n(-c2ccccc2)n1C (centres unmarked) | 16.8 |

| SMILES | hERG current change (%, negative = inhibition) at 10uM [%] |
| --- | --- |
| COc1ccc2c(c1)c(=O)oc1cc(OCC(=O)N3CCc4ccccc4C3)ccc12 | -23.5 |
| Cc1c(C(=O)N/N=C/c2cccnc2)sc(N)c1C#N | 17.2 |
| O=C(NCc1ccco1)Nc1ccc2nsnc2c1 | 10.7 |
| COc1ccc(NC2CCCN(C(=O)CSc3ccncc3)C2)cc1 (centres unmarked) | 8.33 |
| CCCCOC(=O)n1c(SCC(=O)N(C)C)nc2ccccc21 | -23.9 |
| CC(C)(O)P(C)(=O)c1ccccc1 (centres unmarked) | 13.4 |
| O=C(O)c1cccc(S(=O)(=O)N2CCSCC2)c1 | -10.8 |
| COCc1c(C(=O)Nc2ccc3nc(N4CCOCC4)sc3c2)oc2ccccc12 | -31.2 |
| COc1ccc(S(=O)(=O)NN(C)c2nc(C(F)(F)F)nc3ccccc23)cc1 | -4.15 |
| COc1cccc(C2NC(=O)NC(C)=C2C(=O)Nc2ccc(C)cc2)c1OC (centres unmarked) | -6.16 |
| COc1ccccc1NC(=S)NC1CCCCC1 | 7.03 |
| CC(=O)c1cccc(NS(=O)(=O)N(C)C)c1 | 15.4 |
| CC(=O)Nc1ccc(C2Nc3cc(C)c(C)cc3NC3=C2C(=O)CC(C)(C)C3)cc1 (centres unmarked) | 4.69 |
| OCCN1CCN(c2cc(C(F)(F)F)nc3c(F)cccc23)CC1 | -7.86 |
| CCn1c(=S)sc2c(=O)n(CC(=O)Nc3cccc(Cl)c3)c(C)nc21 | 6.27 |
| COc1ccc(S(=O)(=O)N2CCCCCC2)cc1NC(=O)CN(C)Cc1ccc2c(c1)OCO2 | -21.6 |
| Cc1ccc(NC2CC(=O)N(c3cccc([N+](=O)[O-])c3)C2=O)cc1 (centres unmarked) | 9.73 |
| CC(C)CN(C(=O)CSc1nn(-c2ccc(Cl)cc2)c(=S)s1)C1CCS(=O)(=O)C1 (centres unmarked) | -20.1 |
| O=C(CS(=O)(=O)Cc1ccccc1)Nc1ccc2c(c1)OCO2 | 9.72 |
| O=C(NCCc1ccccc1)c1cc(-c2ccccc2)c(N2CCOCC2)s1 | 3.07 |
| CC(C)(C)C(=O)Nc1cccc(-c2nc3ccccc3c(=O)o2)c1 | -24.3 |
| N/C(Cc1cccc2ccccc12)=N\OC(=O)c1ccccc1F | 13.4 |
